# Results: the supplement of paper PMC11417369
# The list shows a part of the results.
# System: PfSIP2 AP2 domain 1 (GST-tagged)
# Test: gcPBM binding intensity (ln(normalized median fluorescence intensity)); higher = stronger DNA binding
# Summary of the method: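 After 1 h on an Agilent 4 × 180k array of primer-extended double-stranded 36-bp intergenic genomic probes and negative controls, bound GST-tagged P. falciparum DNA-binding domains were detected with Alexa488 anti-GST antibody and scanned at 488 nm. The domains had been expressed in E. coli, and binding took place in 1× PBS with 1% milk, 0.2 mg/ml BSA, 0.5% salmon testes DNA and 0.03% Triton X-100. Binding intensity is the highest Masliner-normalised natural-log median intensity across replicate spots of either probe orientation.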
row,Sequence,gcPBM binding intensity (ln)
1,ATATAATATTGAGTTTGTACATATATATATGAAGAT [XGTACX_site4444],7.15
2,AAATAAATATATATATGTACATACAAATACACGGTA [XGTACX_site8510],7.09
3,AAGAAAAATGTCATATGATATCATATATTTTATAAT [TGCATGCA_negctrl_site296],6.82
4,ATTTTCCCTTGTTTTACACACGTGCTGATATGAGAT [CACACA_site2164],7.31
5,GTATTATCTGCTTTTTGTACACATATATTTAAAAAA [XGTACX_site7603],7.91
6,TTCTGTGTGTATTGGCGTACAATTATTTTGCCTACA [XGTACX_site205],7.52
7,ACATTCACAAAATTTTGTACACATATATATATATAT [XGTACX_site3518],9.23
8,CGATTTTTTAAGTTTGTGCACTTAAAAACTATAACA,9.78
9,CCATTTGATAATAATGCACACCACATATATTTATAT [CACACA_site9002],7.59
10,AAAAGGAATTATAGGAAATAAATATATACAAATATA [TGCATGCA_negctrl_site528],6.86
11,TATACTATACAACACATACACACAAAAAAAAAAAAA [CACACA_site537],7.22
12,TATATGTCAATATCTACACACATATAGGTAATTATT [CACACA_site7475],6.71
13,TATTTCAAAATAAAATAAAATATATATATATGTATA [XGTACX_negctrl_site416],6.95
14,TTTATTTATTAAGAATGTACATGTATTTGTTAAATA [XGTACX_site4465],7.29
15,TAAATCATGGGATAAGCATGCGCGCACATGTTTGTT [TGCATGCA_site768],7.05
16,ACCCACGTAAATTAAGCATGCCTTCCGTTATATTTA [TGCATGCA_site365],6.99
17,TTTTACTAAATATATACACACATTATGCATATATAT [CACACA_site3287],7.57
18,TATATGTAATATTATACATGCATACATAATATATAT [TGCATGCA_site558],7.31
19,TTTTTTTTTTATAAGGCACACATGAATATTTATACA [CACACA_site1316],7.03
20,TATGTGAATATAATCACACACAATACGGAAAGAGAC [CACACA_site7311],8.34
21,AATGTGATAATATACACACACGCATATATATATATA [CACACA_site323],9.89
22,CTGTGTAATTTAAATTGTACGTTTGAAAAAAATAAA [XGTACX_site5667],7.22
23,AAAACACTTATGGATTGTACAATAAAAATTATATTA [XGTACX_site7042],6.93

row,Sequence,gcPBM binding intensity (ln)
1,TTTTAAAGAAAAAAATGTACAAAATTTTTATTTTAA [XGTACX_site1496],6.62
2,AGTAGTCTGGAGAAGAGTACACAGTATCTGGTAGCT [XGTACX_site2042],6.71
3,ACATTAACATTGTTGGTGCAAAATTAATATGTTTTT [GTGCAC_site9673],9.77
4,CAAACATATTAATGTACACACACCCACCCACAAACA [CACACA_site2752],7.69
5,TTTTTTTCAATATTTGCACACGATTAAAATATTTAA [CACACA_site5266],7.28
6,TATTATATATATATATGTACATATTGTATGTTATAT [XGTACX_site5303],7.09
7,TATGTGAATATTGAGGTGCGGTTGTTAAAATTTATA [GTGCAC_site9915],10.1
8,TTAAATATTTTTTATACACACATTTCTTATTTAACT [CACACA_site229],6.85
9,TAATTATTATTAATAGTACACACTATGGCATTTCAA [CACACA_site2488],6.94
10,CCTAAAGTGTAAAATTCACACACATATATATATATA [CACACA_site8385],8.94
11,TTTATTTATAGGTATACACACTTTAATTAAAAGTTG [CACACA_site7232],6.82
12,TTTATTTTTGAAGTTGCACACACAAAAATAAAAAGT [CACACA_site8030],8.18
13,AATTCAATTGAGCAAAATTCAAATAAATTAAAAAGA [XGTACX_negctrl_site71],6.76
14,CAAAAATAATTTAGGTGTACAAATTTGACAAAAAAA [XGTACX_site188],7.02
15,ATGAAACACTCCATAGTGCAAAATATATATTATATT,8.32
16,CTATTTTTCCTGAAATGTACAAGAATTTTATTTGAT [XGTACX_site8867],6.93
17,TGATAATATTATATATGTACATATATGTATATTTTT [XGTACX_site7193],7
18,ATATGGGTGAACATATGTACATATATATATTGATAA [XGTACX_site8438],7.1
19,TTGGTATATTATAAAAGTACACATAATAAAAAATTT [XGTACX_site7985],7.02
20,ATTTTTCATTCTGGACATGTTACCATTATATATATG [CACACA_negctrl_site61],7.4
21,ATAACTATAATAATCATACACACCAAAGAGAATATT [CACACA_site6970],7.05
22,TAATTTGTTATGTATTGTACAAATAATATATGATAT [XGTACX_site1985],7.09
